Experimental data: article PMC8363609
Results are given in words; binding and its absence hold for the method and conditions named. In cells and extracts the contact can be indirect. Some binding calls cover weakened binding; strength is not graded here. Where a sequence is shown, tags or fusion partners need not be part of it.

Protein sequences, listed by entry. Tags and fused reporters are not part of them.
UniProt P41208: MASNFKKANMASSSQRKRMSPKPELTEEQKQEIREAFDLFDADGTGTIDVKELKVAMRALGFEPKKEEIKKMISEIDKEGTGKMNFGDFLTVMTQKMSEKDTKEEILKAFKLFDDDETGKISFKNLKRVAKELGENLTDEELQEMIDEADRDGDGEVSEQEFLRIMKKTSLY
UniProt O43303: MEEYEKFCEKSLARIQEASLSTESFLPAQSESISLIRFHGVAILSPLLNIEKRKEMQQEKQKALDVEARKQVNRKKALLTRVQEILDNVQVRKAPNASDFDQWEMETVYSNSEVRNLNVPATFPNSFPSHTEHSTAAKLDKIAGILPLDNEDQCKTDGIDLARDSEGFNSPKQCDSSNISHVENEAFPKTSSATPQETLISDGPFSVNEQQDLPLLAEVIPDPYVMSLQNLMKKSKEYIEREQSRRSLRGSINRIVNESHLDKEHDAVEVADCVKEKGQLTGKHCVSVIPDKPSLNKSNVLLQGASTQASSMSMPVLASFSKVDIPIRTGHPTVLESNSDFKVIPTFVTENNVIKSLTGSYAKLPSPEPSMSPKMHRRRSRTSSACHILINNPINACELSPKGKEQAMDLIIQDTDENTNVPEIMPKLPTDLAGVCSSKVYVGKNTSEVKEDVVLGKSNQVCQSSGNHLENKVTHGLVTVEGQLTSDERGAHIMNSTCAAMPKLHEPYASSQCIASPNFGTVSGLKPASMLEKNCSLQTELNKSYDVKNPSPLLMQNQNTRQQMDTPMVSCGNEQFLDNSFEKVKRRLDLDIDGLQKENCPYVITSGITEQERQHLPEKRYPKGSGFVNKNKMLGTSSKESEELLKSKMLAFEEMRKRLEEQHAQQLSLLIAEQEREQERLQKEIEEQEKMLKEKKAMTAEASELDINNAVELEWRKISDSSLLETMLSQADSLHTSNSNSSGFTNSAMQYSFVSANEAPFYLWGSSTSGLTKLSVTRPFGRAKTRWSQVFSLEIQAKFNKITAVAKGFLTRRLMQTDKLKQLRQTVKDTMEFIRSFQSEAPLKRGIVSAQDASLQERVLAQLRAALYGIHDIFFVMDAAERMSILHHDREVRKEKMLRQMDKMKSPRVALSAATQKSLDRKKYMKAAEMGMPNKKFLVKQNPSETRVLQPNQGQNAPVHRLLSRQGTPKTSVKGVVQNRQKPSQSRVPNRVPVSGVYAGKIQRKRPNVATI
UniProt Q9HC77: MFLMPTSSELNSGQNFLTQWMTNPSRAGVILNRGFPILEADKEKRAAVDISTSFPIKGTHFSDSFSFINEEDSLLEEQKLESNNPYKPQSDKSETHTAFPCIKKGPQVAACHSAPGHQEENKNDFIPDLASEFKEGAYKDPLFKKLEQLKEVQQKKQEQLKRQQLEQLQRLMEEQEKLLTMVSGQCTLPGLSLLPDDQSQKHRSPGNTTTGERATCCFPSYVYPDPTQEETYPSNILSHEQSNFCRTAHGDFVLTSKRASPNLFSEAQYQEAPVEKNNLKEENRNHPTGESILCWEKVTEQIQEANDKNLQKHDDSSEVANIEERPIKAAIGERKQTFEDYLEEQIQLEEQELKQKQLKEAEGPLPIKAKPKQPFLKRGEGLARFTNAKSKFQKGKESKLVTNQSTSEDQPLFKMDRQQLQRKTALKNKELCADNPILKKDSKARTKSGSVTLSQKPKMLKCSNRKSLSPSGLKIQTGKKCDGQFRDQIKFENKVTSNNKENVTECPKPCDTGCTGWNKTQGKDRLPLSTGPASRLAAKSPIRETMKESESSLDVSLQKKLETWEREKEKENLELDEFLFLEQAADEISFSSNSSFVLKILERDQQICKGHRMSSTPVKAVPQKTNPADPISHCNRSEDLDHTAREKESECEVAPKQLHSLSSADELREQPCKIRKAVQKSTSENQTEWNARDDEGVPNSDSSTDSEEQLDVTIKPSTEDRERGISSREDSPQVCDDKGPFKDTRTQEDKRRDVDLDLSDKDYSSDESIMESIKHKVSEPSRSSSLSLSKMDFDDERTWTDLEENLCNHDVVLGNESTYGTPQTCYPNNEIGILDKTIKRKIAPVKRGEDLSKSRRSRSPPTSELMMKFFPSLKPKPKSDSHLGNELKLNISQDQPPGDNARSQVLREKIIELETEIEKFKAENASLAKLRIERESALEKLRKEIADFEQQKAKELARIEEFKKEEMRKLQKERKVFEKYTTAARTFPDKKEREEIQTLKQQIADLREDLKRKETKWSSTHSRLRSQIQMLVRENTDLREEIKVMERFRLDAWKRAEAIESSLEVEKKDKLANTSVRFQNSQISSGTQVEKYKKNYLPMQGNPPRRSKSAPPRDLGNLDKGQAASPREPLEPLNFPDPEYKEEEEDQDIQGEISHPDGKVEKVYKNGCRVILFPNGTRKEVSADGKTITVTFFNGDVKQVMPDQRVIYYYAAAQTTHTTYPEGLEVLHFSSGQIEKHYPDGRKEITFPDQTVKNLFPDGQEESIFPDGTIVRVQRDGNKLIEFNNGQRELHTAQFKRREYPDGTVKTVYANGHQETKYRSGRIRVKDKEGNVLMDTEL
UniProt P53350: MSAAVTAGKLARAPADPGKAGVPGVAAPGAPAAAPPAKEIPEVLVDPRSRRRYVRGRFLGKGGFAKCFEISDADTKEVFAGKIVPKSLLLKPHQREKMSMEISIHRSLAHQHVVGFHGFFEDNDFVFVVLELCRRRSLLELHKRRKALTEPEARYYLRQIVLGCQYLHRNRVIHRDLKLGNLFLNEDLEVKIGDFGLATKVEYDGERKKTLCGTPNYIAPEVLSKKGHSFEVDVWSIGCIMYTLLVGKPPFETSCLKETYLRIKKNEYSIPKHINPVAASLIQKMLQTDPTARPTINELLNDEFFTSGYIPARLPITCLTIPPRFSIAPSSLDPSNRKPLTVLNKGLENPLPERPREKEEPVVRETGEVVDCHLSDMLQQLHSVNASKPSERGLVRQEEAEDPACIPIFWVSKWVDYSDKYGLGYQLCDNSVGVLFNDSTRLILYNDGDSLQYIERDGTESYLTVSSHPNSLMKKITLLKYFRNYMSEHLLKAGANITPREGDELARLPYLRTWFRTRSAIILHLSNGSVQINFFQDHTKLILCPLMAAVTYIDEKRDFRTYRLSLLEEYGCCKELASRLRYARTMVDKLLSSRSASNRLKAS

Legend:
Assay in all cases: co-IP; HEK293T cells co-transfected with two tagged plasmids, collected after 24 h; lysed in ELB buffer (50 mM HEPES, 250 mM NaCl, 0.1% NP-40); IP with anti-GFP, anti-FLAG or anti-MYC antibody and Dynabeads-protein-G at 4 °C; immunoblot for the tags
GFP-BBS4 (human) = molecular target: T1, GFP-BBS4 (human) (UniProt Q96RK4)
T1 sequence: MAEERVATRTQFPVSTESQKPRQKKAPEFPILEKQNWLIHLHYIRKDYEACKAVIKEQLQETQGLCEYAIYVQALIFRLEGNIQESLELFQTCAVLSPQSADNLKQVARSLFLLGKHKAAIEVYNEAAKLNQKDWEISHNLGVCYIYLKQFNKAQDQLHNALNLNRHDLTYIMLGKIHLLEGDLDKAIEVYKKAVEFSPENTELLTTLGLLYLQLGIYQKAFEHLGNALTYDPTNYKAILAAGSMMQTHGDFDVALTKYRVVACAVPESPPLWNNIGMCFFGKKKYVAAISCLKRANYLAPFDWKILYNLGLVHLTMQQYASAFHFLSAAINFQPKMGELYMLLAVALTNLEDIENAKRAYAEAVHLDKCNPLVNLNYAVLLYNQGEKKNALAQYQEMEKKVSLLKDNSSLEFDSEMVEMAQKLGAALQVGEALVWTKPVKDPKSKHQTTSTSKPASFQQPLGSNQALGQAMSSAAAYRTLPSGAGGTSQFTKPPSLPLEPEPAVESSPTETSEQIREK

GFP-CEP68 (human) = molecular target: T2, GFP-CEP68 (human) (UniProt Q76N32)
T2 sequence: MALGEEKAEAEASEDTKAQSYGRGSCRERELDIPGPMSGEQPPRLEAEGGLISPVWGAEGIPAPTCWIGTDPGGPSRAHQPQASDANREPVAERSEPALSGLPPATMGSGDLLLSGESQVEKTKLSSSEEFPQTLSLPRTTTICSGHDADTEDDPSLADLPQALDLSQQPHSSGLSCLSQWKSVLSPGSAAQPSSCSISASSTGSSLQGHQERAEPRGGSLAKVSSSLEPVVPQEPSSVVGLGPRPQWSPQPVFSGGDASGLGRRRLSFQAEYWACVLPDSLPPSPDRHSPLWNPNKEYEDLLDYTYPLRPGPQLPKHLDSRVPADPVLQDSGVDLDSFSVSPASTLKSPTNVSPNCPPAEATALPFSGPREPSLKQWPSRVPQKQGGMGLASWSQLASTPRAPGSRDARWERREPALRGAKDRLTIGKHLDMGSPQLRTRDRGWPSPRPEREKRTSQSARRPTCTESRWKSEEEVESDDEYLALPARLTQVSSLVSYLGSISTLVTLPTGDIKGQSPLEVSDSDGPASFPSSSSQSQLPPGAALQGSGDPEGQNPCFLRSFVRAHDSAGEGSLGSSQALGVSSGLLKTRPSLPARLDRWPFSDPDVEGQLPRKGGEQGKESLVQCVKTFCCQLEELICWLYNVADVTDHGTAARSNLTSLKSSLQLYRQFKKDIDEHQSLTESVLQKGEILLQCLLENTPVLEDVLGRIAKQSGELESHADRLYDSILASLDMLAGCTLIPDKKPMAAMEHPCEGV

GFP-CETN2 (human) = GFP-CETN2 (human) (UniProt P41208)
GFP-CP110 (human) = GFP-CP110 (human) (UniProt O43303)
GFP-CPAP (human) = GFP-CPAP (human) (UniProt Q9HC77)
GFP-NEK2A (human) = molecular target: T3, GFP-NEK2A (human) (UniProt P51955)
T3 sequence: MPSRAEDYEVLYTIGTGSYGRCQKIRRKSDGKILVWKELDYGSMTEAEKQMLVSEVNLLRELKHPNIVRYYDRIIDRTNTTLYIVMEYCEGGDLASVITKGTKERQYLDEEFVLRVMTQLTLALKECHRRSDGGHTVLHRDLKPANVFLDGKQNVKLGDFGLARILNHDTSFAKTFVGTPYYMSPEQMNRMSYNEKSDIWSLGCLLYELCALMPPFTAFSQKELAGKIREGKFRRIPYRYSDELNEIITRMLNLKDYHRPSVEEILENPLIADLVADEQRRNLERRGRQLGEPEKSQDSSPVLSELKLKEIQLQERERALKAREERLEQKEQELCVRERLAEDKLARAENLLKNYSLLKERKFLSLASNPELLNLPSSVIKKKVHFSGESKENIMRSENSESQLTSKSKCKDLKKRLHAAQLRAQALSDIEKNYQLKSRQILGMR

GFP-PLK1 (human) = GFP-PLK1 (human) (UniProt P53350)
[1] = molecular target: T4, MYC-CENTLEIN 971–1396aa (not stated (human or mouse cDNA cloned)) (UniProt A2AM05)
T4 sequence: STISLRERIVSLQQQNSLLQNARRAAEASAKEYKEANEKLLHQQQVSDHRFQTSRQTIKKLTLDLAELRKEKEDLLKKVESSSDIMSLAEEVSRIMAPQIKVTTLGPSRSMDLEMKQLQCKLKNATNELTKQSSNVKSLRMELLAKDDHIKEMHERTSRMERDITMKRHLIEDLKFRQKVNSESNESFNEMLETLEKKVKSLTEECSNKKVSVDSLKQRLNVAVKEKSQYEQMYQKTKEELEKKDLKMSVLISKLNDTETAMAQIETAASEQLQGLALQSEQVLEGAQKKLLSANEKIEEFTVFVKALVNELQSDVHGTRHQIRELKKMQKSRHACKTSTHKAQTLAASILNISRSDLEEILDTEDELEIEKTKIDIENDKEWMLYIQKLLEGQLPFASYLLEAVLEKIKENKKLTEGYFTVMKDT

B1: FLAG-tagged SUN5 (protein, UniProt Q9DA32 1-373)
chain: MPRTRNIGALCTLPEDTTHSGRPRRGVQRSYISRMAEPAPANMNDPLLLPLRMNTPGLSLVQILLGYMSWLTYLACFLRTQTQQVFLNTCRCKLFCQKVMEKMGLLVLCVFGFWMFSMHLPSKVEVWQDDSINGPLQSLRMYQEKVRHHTGEIQDLRGSMNQLIAKLQKMEAISDEQKMAQKIMKMIQGDYIEKPDFALKSIGASIDFEHTSATYNHDKARSYWNWIRLWNYAQPPDVILEPNVTPGNCWAFASDRGQVTIRLAQKVYLSNITLQHIPKTISLSGSPDTAPKDIVIYGLESLPREEVFLGAFQFQPENVIQMFQLQNLPPRSFAAVKVKISSNWGNPRFTCMYRVRVHGSVTPPKDSHLEPLS
binding (GFP-BBS4 (human)): no binding
binding (GFP-CEP68 (human)): no binding
binding (GFP-CETN2 (human)): no binding
binding (GFP-CP110 (human)): no binding
binding (GFP-CPAP (human)): no binding
binding (GFP-NEK2A (human)): no binding
binding (GFP-PLK1 (human)): no binding
binding [1]: binds
